Measurements as given in publication PMC12820563, “FoxP3 forms a head-to-head dimer in vivo and stabilizes its multimerization on adjacent microsatellites”.
This is one part of the list.

Target: T1, MBP-FoxP1dN (Mus musculus, UniProt P58462 326-579)
T1 sequence: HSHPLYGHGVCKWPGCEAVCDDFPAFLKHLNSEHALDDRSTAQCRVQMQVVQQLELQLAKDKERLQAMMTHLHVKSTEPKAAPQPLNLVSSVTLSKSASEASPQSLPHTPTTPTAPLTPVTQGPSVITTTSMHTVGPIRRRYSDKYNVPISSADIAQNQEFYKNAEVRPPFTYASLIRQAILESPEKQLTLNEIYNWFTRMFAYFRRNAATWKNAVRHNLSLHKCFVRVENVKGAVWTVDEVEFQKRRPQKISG
Experiment: PD-seq (MBP pull-down with sequencing); 20 mM Tris-HCl pH 7.5, 100 mM NaCl, 1.5 mM MgCl2, 0.4 uM protein, 0.1 uM dsDNA library, 30 min, room temperature, amylose pull-down; high values mean tight binding
Details: protein: recombinant; tags: His6-MBP; chain copies: 2; dsDNA, one strand shown
Method in brief: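 Mouse FoxP3 or FoxP1 fragment lacking the N-terminus, His6-MBP-tagged and expressed in E. coli, was incubated at 0.4 µM with 0.1 µM Klenow-filled degenerate double-stranded DNA library for 30 min at room temperature in Tris pH 7.5 buffer with NaCl and MgCl2. Complexes captured on amylose resin were washed three times and their DNA sequenced on Illumina. Binding is reads-per-million enrichment of pull-down over input, replicates pooled.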

| Sequence | binding signal |
| --- | --- |
| GATGATTGTTCTCCCAGCTGATGAATTGCCTTAGTCGAGTAAACAAATTTTCCTAATCTTTCTGTTCAAGCGCCATCTAC | 0.943 RPM ratio (pull-down/input) |
| GATGATTGTTCTCCCAGCTGATGAATTTTAAGACTCGAGTAAACAAATTTTCCTAATCTTTCTGTTCAAGCGCCATCTAC | 0.904 RPM ratio (pull-down/input) |
| GATGATTGTTCTCCCAGCTGATGAATTGTACACGTCGAGTAAACAAATTTTCCTAATCTTTCTGTTCAAGCGCCATCTAC | 1.15 RPM ratio (pull-down/input) |
| GATGATTGTTCTCCCAGCTGATGAATTGCATTTCTCGAGTAAACAAATTTTCCTAATCTTTCTGTTCAAGCGCCATCTAC | 1.43 RPM ratio (pull-down/input) |
| GATGATTGTTCTCCCAGCTGATGAATTGTGGAGGTCGAGTAAACAAATTTTCCTAATCTTTCTGTTCAAGCGCCATCTAC | 0.81 RPM ratio (pull-down/input) |
| GATGATTGTTCTCCCAGCTGATGAATTGTCGGAGTCGAGTAAACAAATTTTCCTAATCTTTCTGTTCAAGCGCCATCTAC | 0.866 RPM ratio (pull-down/input) |
| GATGATTGTTCTCCCAGCTGATGAATTGGAGCTTTCGAGTAAACAAATTTTCCTAATCTTTCTGTTCAAGCGCCATCTAC | 0.893 RPM ratio (pull-down/input) |
| GATGATTGTTCTCCCAGCTGATGAATTCTATGGTTCGAGTAAACAAATTTTCCTAATCTTTCTGTTCAAGCGCCATCTAC | 0.91 RPM ratio (pull-down/input) |
| GATGATTGTTCTCCCAGCTGATGAATTCTACGTCTCGAGTAAACAAATTTTCCTAATCTTTCTGTTCAAGCGCCATCTAC | 0.821 RPM ratio (pull-down/input) |
| GATGATTGTTCTCCCAGCTGATGAATTTATCGCTTCGAGTAAACAAATTTTCCTAATCTTTCTGTTCAAGCGCCATCTAC | 1.1 RPM ratio (pull-down/input) |
| GATGATTGTTCTCCCAGCTGATGAATTCGATGCGTCGAGTAAACAAATTTTCCTAATCTTTCTGTTCAAGCGCCATCTAC | 1.12 RPM ratio (pull-down/input) |
| GATGATTGTTCTCCCAGCTGATGAATTTTTACGCTCGAGTAAACAAATTTTCCTAATCTTTCTGTTCAAGCGCCATCTAC | 0.907 RPM ratio (pull-down/input) |
| GATGATTGTTCTCCCAGCTGATGAATTCTAGGAATCGAGTAAACAAATTTTCCTAATCTTTCTGTTCAAGCGCCATCTAC | 0.962 RPM ratio (pull-down/input) |
| GATGATTGTTCTCCCAGCTGATGAATTGAAAGGATCGAGTAAACAAATTTTCCTAATCTTTCTGTTCAAGCGCCATCTAC | 0.776 RPM ratio (pull-down/input) |
| GATGATTGTTCTCCCAGCTGATGAATTGGCATAATCGAGTAAACAAATTTTCCTAATCTTTCTGTTCAAGCGCCATCTAC | 1.22 RPM ratio (pull-down/input) |
| GATGATTGTTCTCCCAGCTGATGAATTTCCTCCCTCGAGTAAACAAATTTTCCTAATCTTTCTGTTCAAGCGCCATCTAC | 0.834 RPM ratio (pull-down/input) |

| Sequence | binding signal |
| --- | --- |
| GATGATTGTTCTCCCAGCTGATGAATTCGCGGTCTCGAGTAAACAAATTTTCCTAATCTTTCTGTTCAAGCGCCATCTAC | 0.853 RPM ratio (pull-down/input) |
| GATGATTGTTCTCCCAGCTGATGAATTACACCACTCGAGTAAACAAATTTTCCTAATCTTTCTGTTCAAGCGCCATCTAC | 1.14 RPM ratio (pull-down/input) |
| GATGATTGTTCTCCCAGCTGATGAATTCATACGTTCGAGTAAACAAATTTTCCTAATCTTTCTGTTCAAGCGCCATCTAC | 1.04 RPM ratio (pull-down/input) |
| GATGATTGTTCTCCCAGCTGATGAATTAAGAGCGTCGAGTAAACAAATTTTCCTAATCTTTCTGTTCAAGCGCCATCTAC | 0.946 RPM ratio (pull-down/input) |
| GATGATTGTTCTCCCAGCTGATGAATTCCAGCAATCGAGTAAACAAATTTTCCTAATCTTTCTGTTCAAGCGCCATCTAC | 0.986 RPM ratio (pull-down/input) |
| GATGATTGTTCTCCCAGCTGATGAATTGTAGGACTCGAGTAAACAAATTTTCCTAATCTTTCTGTTCAAGCGCCATCTAC | 0.895 RPM ratio (pull-down/input) |
| GATGATTGTTCTCCCAGCTGATGAATTTCCCCCATCGAGTAAACAAATTTTCCTAATCTTTCTGTTCAAGCGCCATCTAC | 0.881 RPM ratio (pull-down/input) |
| GATGATTGTTCTCCCAGCTGATGAATTATTTGGCTCGAGTAAACAAATTTTCCTAATCTTTCTGTTCAAGCGCCATCTAC | 1.11 RPM ratio (pull-down/input) |
| GATGATTGTTCTCCCAGCTGATGAATTGGGAAATTCGAGTAAACAAATTTTCCTAATCTTTCTGTTCAAGCGCCATCTAC | 0.972 RPM ratio (pull-down/input) |
| GATGATTGTTCTCCCAGCTGATGAATTTCAGTTGTCGAGTAAACAAATTTTCCTAATCTTTCTGTTCAAGCGCCATCTAC | 1.38 RPM ratio (pull-down/input) |
| GATGATTGTTCTCCCAGCTGATGAATTGCCATGCTCGAGTAAACAAATTTTCCTAATCTTTCTGTTCAAGCGCCATCTAC | 1.02 RPM ratio (pull-down/input) |
| GATGATTGTTCTCCCAGCTGATGAATTTTGCGCTTCGAGTAAACAAATTTTCCTAATCTTTCTGTTCAAGCGCCATCTAC | 0.86 RPM ratio (pull-down/input) |
| GATGATTGTTCTCCCAGCTGATGAATTTATCGGCTCGAGTAAACAAATTTTCCTAATCTTTCTGTTCAAGCGCCATCTAC | 0.931 RPM ratio (pull-down/input) |
| GATGATTGTTCTCCCAGCTGATGAATTAGAATCCTCGAGTAAACAAATTTTCCTAATCTTTCTGTTCAAGCGCCATCTAC | 0.849 RPM ratio (pull-down/input) |
| GATGATTGTTCTCCCAGCTGATGAATTAATGCTTTCGAGTAAACAAATTTTCCTAATCTTTCTGTTCAAGCGCCATCTAC | 1.55 RPM ratio (pull-down/input) |
| GATGATTGTTCTCCCAGCTGATGAATTGCAGAAGTCGAGTAAACAAATTTTCCTAATCTTTCTGTTCAAGCGCCATCTAC | 1.06 RPM ratio (pull-down/input) |
